Measured values reported in paper PMC10338342, “Cooperation between bHLH transcription factors and histones for DNA access” (Nature, 2023).

Target: the molecule itself
Assay: cryo-EM structure; MAX-MAX homodimer on a nucleosome with an E-box at SHL+5.1 (1:3), GraFix cross-linked; 6.2 Å overall, 10–15 Å for MAX-MAX

B1: MAX-MAX homodimer (human MAX […]) (complex)
chain: not shown
notes: MAX, human, […]; also called MAX-MAX bHLH LZ; source: E. coli, purified (Strep-Tactin, Superdex 200 Increase)
binding result: binds
